{"source": "the supplement of paper PMC8728848", "experiment_in_all_cases": "glycan array binding signal (z-score within array); higher = stronger binding", "settings_in_all_cases": "glycan notation: IUPAC condensed, linker removed", "key": {"[1]": {"target": "Fuc(a1-3)[Gal(b1-4)]GlcNAc(b1-3)Gal(b1-4)[Fuc(a1-3)]GlcNAc", "procedure,_shortened": "(§1)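 Glycan array data came from 3228 arrays in the Consortium for Functional Glycomics database, and only arrays with an available protein sequence were kept. Glycan names were put into IUPAC-condensed notation, and columns mapping to the same glycan were averaged. The binding signal is a within-array Z-score, averaged across arrays of one protein sequence run at different concentrations or buffers and across linkers. A negative Z-score can be read as non-binding.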"}, "[2]": {"target": "Fuc(a1-3)[Gal(b1-4)]GlcNAc(b1-3)Gal(b1-4)[Fuc(a1-3)]GlcNAc(b1-3)Gal(b1-4)[Fuc(a1-3)]GlcNAc", "procedure,_shortened": "as §1"}, "[3]": {"target": "Fuc(a1-3)[Gal(b1-4)]GlcNAc(b1-3)GalNAc", "procedure,_shortened": "as §1"}, "[4]": {"target": "Fuc(a1-3)[Gal(b1-4)]GlcNAc(b1-6)GalNAc", "procedure,_shortened": "as §1"}, "[5]": {"target": "Fuc(a1-3)[Gal(b1-4)]GlcNAc(b1-6)[Gal(b1-3)GlcNAc(b1-3)]Gal(b1-4)Glc", "procedure,_shortened": "as §1"}, "[6]": {"target": "Fuc(a1-3)[Gal(b1-4)]GlcNAc6S", "procedure,_shortened": "as §1"}, "[7]": {"target": "Fuc(a1-3)[Gal3S(b1-4)]Glc", "procedure,_shortened": "as §1"}, "[8]": {"target": "Fuc(a1-3)[Gal3S(b1-4)]GlcNAc", "procedure,_shortened": "as §1"}, "[9]": {"target": "Fuc(a1-3)[Gal3S(b1-4)]GlcNAc6S", "procedure,_shortened": "as §1"}, "[10]": {"target": "Fuc(a1-3)[GalNAc(b1-4)]GlcNAc", "procedure,_shortened": "as §1"}, "[11]": {"target": "Fuc(a1-3)[GalNAc(b1-4)]GlcNAc6S", "procedure,_shortened": "as §1"}, "[12]": {"target": "Fuc(a1-4)GlcNAc", "procedure,_shortened": "as §1"}, "[13]": {"target": "Fuc(b1-3)GlcNAc", "procedure,_shortened": "as §1"}, "[14]": {"target": "Gal(a1-2)Gal", "procedure,_shortened": "as §1"}, "[15]": {"target": "Gal(a1-3)Gal", "procedure,_shortened": "as §1"}, "[16]": {"target": "Gal(a1-3)Gal(b1-3)GlcNAc", "procedure,_shortened": "as §1"}, "[17]": {"target": "Gal(a1-3)Gal(b1-3)GlcNAc(b1-2)Man", "procedure,_shortened": "as §1"}, "[18]": {"target": "Gal(a1-3)Gal(b1-3)GlcNAc(b1-2)Man(a1-3)[Gal(a1-3)Gal(b1-3)GlcNAc(b1-2)Man(a1-6)]Man(b1-4)GlcNAc(b1-4)GlcNAc", "procedure,_shortened": "as §1"}, "[19]": {"target": "Gal(a1-3)Gal(b1-3)GlcNAc(b1-3)GalNAc", "procedure,_shortened": "as §1"}, "[20]": {"target": "Gal(a1-3)Gal(b1-3)GlcNAc(b1-6)GalNAc", "procedure,_shortened": "as §1"}, "[21]": {"target": "Gal(a1-3)Gal(b1-3)[Fuc(a1-4)]GlcNAc(b1-2)Man(a1-3)[Gal(a1-3)Gal(b1-3)[Fuc(a1-4)]GlcNAc(b1-2)Man(a1-6)]Man(b1-4)GlcNAc(b1-4)GlcNAc", "procedure,_shortened": "as §1"}, "[22]": {"target": "Gal(a1-3)Gal(b1-4)Glc", "procedure,_shortened": "as §1"}, "[23]": {"target": "Gal(a1-3)Gal(b1-4)GlcNAc", "procedure,_shortened": "as §1"}, "[24]": {"target": "Gal(a1-3)Gal(b1-4)GlcNAc(b1-2)Man", "procedure,_shortened": "as §1"}, "[25]": {"target": "Gal(a1-3)Gal(b1-4)GlcNAc(b1-2)Man(a1-3)[Gal(a1-3)Gal(b1-4)GlcNAc(b1-2)Man(a1-6)]Man(b1-4)GlcNAc(b1-4)GlcNAc", "procedure,_shortened": "as §1"}, "[26]": {"target": "Gal(a1-3)Gal(b1-4)GlcNAc(b1-3)GalNAc", "procedure,_shortened": "as §1"}, "[27]": {"target": "Gal(a1-3)Gal(b1-4)GlcNAc(b1-6)GalNAc", "procedure,_shortened": "as §1"}, "[28]": {"target": "Gal(a1-3)Gal(b1-4)[Fuc(a1-3)]GlcNAc", "procedure,_shortened": "as §1"}, "[29]": {"target": "Gal(a1-3)Gal(b1-4)[Fuc(a1-3)]GlcNAc(b1-2)Man(a1-3)[Gal(a1-3)Gal(b1-4)[Fuc(a1-3)]GlcNAc(b1-2)Man(a1-6)]Man(b1-4)GlcNAc(b1-4)GlcNAc", "procedure,_shortened": "as §1"}, "[30]": {"target": "Gal(a1-3)GalNAc", "procedure,_shortened": "as §1"}, "[31]": {"target": "Gal(a1-3)[Gal(a1-4)]Gal(b1-4)GlcNAc", "procedure,_shortened": "as §1"}, "[32]": {"target": "Gal(a1-4)Gal(b1-3)GlcNAc(b1-2)Man(a1-3)[Gal(a1-4)Gal(b1-3)GlcNAc(b1-2)Man(a1-6)]Man(b1-4)GlcNAc(b1-4)GlcNAc", "procedure,_shortened": "as §1"}, "[33]": {"target": "Gal(a1-4)Gal(b1-4)Glc", "procedure,_shortened": "as §1"}, "[34]": {"target": "Gal(a1-4)Gal(b1-4)GlcNAc", "procedure,_shortened": "as §1"}, "[35]": {"target": "Gal(a1-4)Gal(b1-4)GlcNAc(b1-2)Man(a1-3)[Gal(a1-4)Gal(b1-4)GlcNAc(b1-2)Man(a1-6)]Man(b1-4)GlcNAc(b1-4)GlcNAc", "procedure,_shortened": "as §1"}, "[36]": {"target": "Gal(a1-4)Gal(b1-4)GlcNAc(b1-3)Gal(b1-4)Glc", "procedure,_shortened": "as §1"}, "[37]": {"target": "Gal(a1-4)GlcNAc", "procedure,_shortened": "as §1"}, "[38]": {"target": "Gal(a1-6)Glc", "procedure,_shortened": "as §1"}}, "note": "Some of the results follow."}
{"binder": "PX14367A-bth-493-35-493 (Bacteroides thetaiotaomicron) (protein) VSSDQVAVAGNAERLFNGAWYNLFEYGTTYANIGYRALQCQDDMMASDVVSRPKYGFNSSYQFNDVAIPSDGRTSFAWYLIYKTIDNCNTAISIKGDSEELRQAQGQALALRAFCYLHLVQHYQFTYLKDKDAPCVPIYTEPTTSGTKPKGKSTVAQVYQQIFDDLNLAQDYLTNYVRKGDGQKFKPNTDVVNGLMARAYLLTGQWGEAAKAAEAARKGYSLMTTTAEYEGFNNISNKEWIWGSPQTLSQSDASYNFYYLDATYVGAYSSFMADPHLMDTFVKGDIRLPLFQWMREGYLGYKKFHMRSDDTADLVLMRSAEMYLIEAEAKVRDGVALDQAVAPLNTLRTARGVGNYDVTGKTKEQVIDEILMERRRELWGEGFGITDVLRNQKAVERMALSEDMQKTEVDCWQEGGSFAKRNPLGHWFLNFPDGKAFSANSSYYLYAIPEKEINANPNL", "values": [{"measurement": "glycan array binding signal (z-score)", "setting": "[1]", "value": -0.421}, {"measurement": "glycan array binding signal (z-score)", "setting": "[2]", "value": -0.385}, {"measurement": "glycan array binding signal (z-score)", "setting": "[3]", "value": 0.127}, {"measurement": "glycan array binding signal (z-score)", "setting": "[4]", "value": -0.336}, {"measurement": "glycan array binding signal (z-score)", "setting": "[5]", "value": -0.378}, {"measurement": "glycan array binding signal (z-score)", "setting": "[6]", "value": -0.31}, {"measurement": "glycan array binding signal (z-score)", "setting": "[7]", "value": -0.329}, {"measurement": "glycan array binding signal (z-score)", "setting": "[8]", "value": -0.291}, {"measurement": "glycan array binding signal (z-score)", "setting": "[9]", "value": -0.293}, {"measurement": "glycan array binding signal (z-score)", "setting": "[10]", "value": 0.197}, {"measurement": "glycan array binding signal (z-score)", "setting": "[11]", "value": -0.307}, {"measurement": "glycan array binding signal (z-score)", "setting": "[12]", "value": -0.571}, {"measurement": "glycan array binding signal (z-score)", "setting": "[13]", "value": -0.157}, {"measurement": "glycan array binding signal (z-score)", "setting": "[14]", "value": -0.084}, {"measurement": "glycan array binding signal (z-score)", "setting": "[15]", "value": 0.237}, {"measurement": "glycan array binding signal (z-score)", "setting": "[16]", "value": -0.773}, {"measurement": "glycan array binding signal (z-score)", "setting": "[17]", "value": 0.052}, {"measurement": "glycan array binding signal (z-score)", "setting": "[18]", "value": 0.822}, {"measurement": "glycan array binding signal (z-score)", "setting": "[19]", "value": -0.508}, {"measurement": "glycan array binding signal (z-score)", "setting": "[20]", "value": -0.007}, {"measurement": "glycan array binding signal (z-score)", "setting": "[21]", "value": -0.041}, {"measurement": "glycan array binding signal (z-score)", "setting": "[22]", "value": -0.294}, {"measurement": "glycan array binding signal (z-score)", "setting": "[23]", "value": 0.166}, {"measurement": "glycan array binding signal (z-score)", "setting": "[24]", "value": -0.302}, {"measurement": "glycan array binding signal (z-score)", "setting": "[25]", "value": 3.93}, {"measurement": "glycan array binding signal (z-score)", "setting": "[26]", "value": -0.149}, {"measurement": "glycan array binding signal (z-score)", "setting": "[27]", "value": -0.504}, {"measurement": "glycan array binding signal (z-score)", "setting": "[28]", "value": -0.375}, {"measurement": "glycan array binding signal (z-score)", "setting": "[29]", "value": -0.087}, {"measurement": "glycan array binding signal (z-score)", "setting": "[30]", "value": -0.317}, {"measurement": "glycan array binding signal (z-score)", "setting": "[31]", "value": -0.467}, {"measurement": "glycan array binding signal (z-score)", "setting": "[32]", "value": 2.23}, {"measurement": "glycan array binding signal (z-score)", "setting": "[33]", "value": 0.562}, {"measurement": "glycan array binding signal (z-score)", "setting": "[34]", "value": 0.078}, {"measurement": "glycan array binding signal (z-score)", "setting": "[35]", "value": 0.279}, {"measurement": "glycan array binding signal (z-score)", "setting": "[36]", "value": -0.539}, {"measurement": "glycan array binding signal (z-score)", "setting": "[37]", "value": -0.008}, {"measurement": "glycan array binding signal (z-score)", "setting": "[38]", "value": -0.506}]}
